# Experimental data taken from PMC4336329 (PLoS ONE, 2015).
# Out of some 310,000 compounds screened, about 14,000 (4.5%) showed an effect of 50% or more. The effect is printed as a negative number. This is one part of the list. Where a SMILES comes first, the peptide text is derived from it. The star is where a group is joined. Cbz = O=C(OCc1ccccc1)*; Boc = CC(C)(C)OC(=O)*
# Target: human ether-à-go-go-related gene (hERG) potassium channel (human, UniProt Q12809)
# Experiment: primary screen, population patch clamp on CHO cells stably expressing hERG
# 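Further: peak tail current of the secondary pulse compared with the same well before compound.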
# Sequence of human ether-à-go-go-related gene (hERG) potassium channel (Q12809 whole entry, looked up): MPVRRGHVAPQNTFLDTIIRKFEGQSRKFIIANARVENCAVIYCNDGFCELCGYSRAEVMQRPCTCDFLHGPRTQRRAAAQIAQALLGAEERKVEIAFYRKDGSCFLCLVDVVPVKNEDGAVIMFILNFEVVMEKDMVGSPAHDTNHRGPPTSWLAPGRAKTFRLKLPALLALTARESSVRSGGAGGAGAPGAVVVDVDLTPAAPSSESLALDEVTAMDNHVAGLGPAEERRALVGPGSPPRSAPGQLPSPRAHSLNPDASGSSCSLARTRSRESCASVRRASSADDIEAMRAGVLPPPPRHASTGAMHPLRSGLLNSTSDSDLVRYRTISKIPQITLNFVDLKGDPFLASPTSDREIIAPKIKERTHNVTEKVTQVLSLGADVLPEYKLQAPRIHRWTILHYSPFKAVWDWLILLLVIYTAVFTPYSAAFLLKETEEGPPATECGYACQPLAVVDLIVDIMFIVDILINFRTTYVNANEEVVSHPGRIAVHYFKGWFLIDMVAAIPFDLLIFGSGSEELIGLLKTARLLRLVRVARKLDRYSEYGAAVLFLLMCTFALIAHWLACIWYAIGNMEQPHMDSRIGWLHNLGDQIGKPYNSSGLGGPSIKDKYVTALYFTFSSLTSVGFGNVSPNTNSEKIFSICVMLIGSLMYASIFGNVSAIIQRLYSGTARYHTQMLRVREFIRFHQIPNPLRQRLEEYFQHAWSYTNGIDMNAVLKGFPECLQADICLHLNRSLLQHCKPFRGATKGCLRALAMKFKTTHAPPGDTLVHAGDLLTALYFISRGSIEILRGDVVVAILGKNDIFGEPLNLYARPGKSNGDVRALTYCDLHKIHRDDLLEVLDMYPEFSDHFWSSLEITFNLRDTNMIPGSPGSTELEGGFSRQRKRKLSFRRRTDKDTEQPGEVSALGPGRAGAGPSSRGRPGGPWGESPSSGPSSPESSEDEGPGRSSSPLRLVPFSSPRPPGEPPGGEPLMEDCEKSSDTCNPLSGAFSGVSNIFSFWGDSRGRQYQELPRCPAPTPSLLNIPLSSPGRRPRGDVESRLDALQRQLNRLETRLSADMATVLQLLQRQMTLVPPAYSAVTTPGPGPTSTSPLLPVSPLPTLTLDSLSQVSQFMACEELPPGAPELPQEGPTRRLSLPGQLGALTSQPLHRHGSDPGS
row,SMILES,"hERG current change (%, negative = inhibition) at 10uM [%]"
1,COc1ccc(C(CNC(=O)c2ccc(OCc3c(C)noc3C)cc2)N2CCCC2)cc1 (centres unmarked),-28.1
2,CC(C)CC(C(=O)O)C(C)CC(=O)Nc1ccn(-c2ccccc2)n1 (centres unmarked),-13.2
3,Nc1nc(-c2cc3ccccc3o2)cs1,3.34
4,CCC1=NN(C(=O)C(=O)Nc2ccc(OC)cc2)C(O)(C(F)(F)F)C1 (centres unmarked),-2.93
5,COC(=O)[C@@H](CC(C)C)NS(=O)(=O)N(Cc1ccccc1)[C@@H](CC(C)C)C(=O)OC,-1.9
6,COc1ccc2cc(C3(C)NC(=O)N(CC(=O)NCCC4=CCCCC4)C3=O)ccc2c1 (centres unmarked),-1.72
7,CCCNC(=O)c1ccc(N2CCC3(CC2)CC(c2ccccc2)=NO3)c(NC(=O)c2ccco2)c1,-45.9
8,O=C(COC(=O)c1ccccc1Nc1ccccc1)NCc1ccco1,7.39
9,COc1ccccc1NS(=O)(=O)c1cc(NC(=O)Nc2ccc(Cl)cc2Cl)ccc1N1CCCCC1,7.08
10,CC(C)CCNC(=O)CSc1nc2ccccc2c(=O)[nH]1,6.71
11,COC(=O)CNc1nc(OC)nc(N(C)C)n1,10.6
12,S=c1[nH]nc(-c2ccco2)n1-c1ccc(Br)cc1,17.5
13,O=[N+]([O-])C1=C(Nc2cccc3ccccc23)CS(=O)(=O)C1,-11.2
14,Cc1ccc2c(c1)cc1c(=O)n(CC(=O)N3CCC4(CC3)OCCO4)nc(C)n12,-5.63
15,CC1(NC(=O)c2ccccc2)CCN(CCc2cccs2)C1=O (centres unmarked),9.3
16,O=C(CNC(=O)c1ccc(Cl)cc1)OCCN1C(=O)c2ccccc2C1=O,-14.7
17,CC(=O)O.COc1ccc(N2C(=O)C(CC(N)=O)N(NC(=O)CCc3ccccc3)C2=O)cc1 (centres unmarked),2.77
18,O=C1NCCn2nc3ccccc3c21,6.94
19,O=C(Nc1cccnc1)c1ccc([N+](=O)[O-])o1,16.3
20,CCn1c(SCC(=O)Nc2cc(C)on2)nnc1-c1ccccc1,-3.05
21,CCCCCCCCC(=O)N/N=C(\C)c1ccc(O)cc1O,-9.45
22,CCN1C(C)=C(C)S/C1=C1\SC(=S)N(N)C1=O,9.05
23,Cc1cnc(C(=O)Nc2ccc(F)cc2)cn1,-0.2

row,SMILES,"hERG current change (%, negative = inhibition) at 10uM [%]"
1,CCOc1cc(N2CCOCC2)c(OCC)cc1NC(=O)COc1cccc(Cl)c1,-8.11
2,CCCN(CC(=O)Nc1ccccc1C)C(=O)c1sc2ccccc2c1Cl,-5.03
3,O=C(COc1ccccc1Cl)NCCC1=CCCCC1,-0.394
4,O=C(CCCOc1ccc(Cl)cc1Cl)N/N=C/c1ccc(Cl)cc1,7.5
5,O=S1(=O)c2ccccc2C(CCO)N1Cc1ccccc1 (centres unmarked),7.94
6,C=CCNC(=S)Nc1sc2c(c1C(=O)OCC)CC(C)(CC)OC2 (centres unmarked),28.6
7,CCCn1c(CN2CCCCC2CC)nc2c1c(=O)n(C)c(=O)n2C (centres unmarked),-5.14
8,CC(C[N+](C)(C)C)OC(N)=O.[Cl-] (centres unmarked),11.5
9,CCN(CC)CCN1C(=O)C(=O)/C(=C(/O)c2ccc(C)cc2)C1c1cccnc1 (centres unmarked),1.23
10,CC(=O)c1ccc(OCCCC(=O)Nc2ccc3c(c2)OCCO3)cc1,9.3
11,CCOc1ccc(NC(=O)CSc2nnc(C)n2CC2CCCO2)cc1 (centres unmarked),16
12,CCC(=O)N1CCN(c2ccccc2NC(=O)COc2cccc(C)c2C)CC1,-18
13,CC1CCCN(S(=O)(=O)c2ccc3c(c2)c(=O)nc2ccccn23)C1 (centres unmarked),16.4
14,CC1CN(C(=O)CCC(=O)NCc2ccc(Cl)cc2)c2ccccc2O1 (centres unmarked),-53.6
15,CC1(C)CC(=O)c2cnc(N3CCc4ccccc43)nc2C1,4.43
16,O=C(NCc1ccco1)c1n[nH]c(=O)c2ccccc12,8.18
17,CCOc1ccc(S(=O)(=O)Nc2cccc(C(=O)NCCCn3ccnc3)c2)cc1,10.5
18,Cc1nc(CCNC(=O)Cc2ccc(F)cc2)cs1,18.9
19,CC(=O)Oc1ccc(C(=O)Nc2ccccc2C(=O)N2CCCC2)cc1,17.2
20,CCCOc1ccccc1-c1nc2c([nH]1)c(=O)[nH]c(=O)n2C,8.5
21,CC1CCC(NS(=O)(=O)c2ccc(N3CCCC3=O)cc2)CC1 (centres unmarked),1.51
22,COC(=O)C1=C(C)NC(=O)NC1c1ccsc1 (centres unmarked),0.678
23,Cn1c(N)c(C(=O)COc2ccc(Cl)cc2Cl)c(=O)n(C)c1=O,2.07

row,SMILES,"hERG current change (%, negative = inhibition) at 10uM [%]"
1,CC1CCN(C(=O)c2cc3ccccc3c(=O)o2)CC1,5.74
2,CCCC(=O)OCC(=O)Nc1cc(Cl)ccc1[N+](=O)[O-],16.8
3,CCOC(=O)c1cc(C(=O)NN)c(C)nc1C,14.2
4,COc1ccc(CC(=O)Nc2ccc(S(=O)(=O)Nc3nccc(C)n3)cc2)cc1,-8.29
5,Cc1ccc(N(CC(=O)NCc2ccccc2)C(=O)CCC(=O)Nc2ccccn2)cc1,-1.93
6,CC(C)(C)OC(=O)NCCCC[C@H](NC(=O)[C@H](Cc1c[nH]c2ccccc12)NC(=O)OCc1ccccc1)C(=O)O (Cbz-Trp-Lys(Boc)-OH),15.8
7,COC(=O)c1cc(C(=O)OC)cc(N2C(=O)CC(NNC(=O)c3ccccc3Br)C2=O)c1 (centres unmarked),4.89
8,CCN(CC)c1ncnc2c1cnn2C,7.53
9,CC(=O)Nc1ccc(S(=O)(=O)Nc2nc(C)nc3sc4c(c23)CCC4)cc1,5.89
10,COc1ccccc1OCCSc1nnnn1-c1ccc(C)cc1,-7.83
11,Cc1coc(C)c1C(=O)CC1(O)C(=O)Nc2cc(Cl)cc(Cl)c21 (centres unmarked),0.843
12,CC(C)(C)n1ncc2c(=O)n(CC(=O)N3CCCc4ccccc43)cnc21,7.97
13,COc1ccc(C2C(C(=O)/C=C/c3ccco3)=C(O)C(=O)N2CCN2CCOCC2)cc1 (centres unmarked),13.3
14,O=C(CSc1nnnn1-c1cccc2ccccc12)N1CCOCC1,-25
15,CCOc1ccc(/C=N/NC(=O)c2ccccc2Cl)cc1CN1CC2CC(C1)c1cccc(=O)n1C2 (centres unmarked),-18.1
16,CC(=O)c1cc(-c2nc3ccccc3n2C)n(C)c1,4.26
17,CCCCCCCCN1[C@@H](CC(=O)O)c2ccc(C(F)(F)F)cc2S1(=O)=O,-3.38
18,O=C(NC(=S)NC1CCSC1=O)c1cccs1 (centres unmarked),15.9
19,COc1ccc([N+](=O)[O-])cc1NC(=O)c1ccccc1N(C)S(C)(=O)=O,2.75
20,N#C/C(=C(/O)CN1CCCC1)c1nc(-c2ccccc2)cs1,1.97
21,COc1ccc([C@H]2CC(=O)c3c(O)cc(O)cc3O2)cc1O,4.3
22,CC(C)Sc1nc2ncnc(N)c2[nH]1,18.6
23,CCn1c(Cc2ccccc2)nnc1SCC(=O)Nc1ccc(N)cc1,0.74

row,SMILES,"hERG current change (%, negative = inhibition) at 10uM [%]"
1,CCOC(=O)c1ccccc1NC(=O)c1ccc2c(=O)n3c(nc2c1)CCCCC3,-41.3
2,Cc1ccc(Cn2ccc(NC(=O)c3noc4c3CCCCC4)n2)cc1,5.65
3,COC(=O)C1=C(c2cc3ccccc3o2)C[C@@H]2CC[C@H]1N2C(=O)NCCNC(C)=O,10.3
4,O=Cc1c[nH]c2ccc(OCc3ccccc3)cc12,9.68
5,COc1ccc(Cl)cc1N1CC(c2nc3ccccc3[nH]2)CC1=O (centres unmarked),-33.9
6,Cc1ccc(C(=O)COC(=O)c2ccc(Cl)c(N)c2)s1,-2.05
7,CN(C)c1ccc(NC(=O)c2cccc(N3C(=O)C4C5C=CC(C5)C4C3=O)c2)cc1 (centres unmarked),10.3
8,O=C(COC(=O)/C=C/c1cccs1)Nc1cccc(S(=O)(=O)N2CCCC2)c1,2.94
9,Cl.O=C(NCCCn1ccnc1)c1ccc(S(=O)(=O)N2CCOCC2)cc1,8.09
10,Cc1noc(C)c1COc1ccc(C(=O)OCC(=O)Nc2ccc3c(c2)OCO3)cc1,7.08
11,Cc1ccc(C(=O)O/N=C(\N)c2cccnc2)cc1[N+](=O)[O-],-5.2
12,O=C1OC(/C(=C\NCc2ccccc2)[N+](=O)[O-])c2ccccc21 (centres unmarked),-5.17
13,Cc1ccc(S(=O)(=O)CC(=O)NC2CC2)cc1,-7.35
14,COCCNc1c(-c2ccc(O)cc2)nc2ccc(Cl)cn12,-3.37
15,C=CCNc1oc(-c2ccc(OCC)cc2)nc1C#N,-15.3
16,CCOc1ccc2[nH]c(=O)c(CN(Cc3ccco3)C(CC)c3nnnn3Cc3ccccc3)cc2c1 (centres unmarked),-12.5
17,O=C(Cn1c(-c2cncs2)nc2ccccc21)NCc1ccccc1,10.8
18,CCc1noc(C)c1C(=O)NC1CC(C)(C)Cc2c1cnn2-c1ccccc1 (centres unmarked),5.9
19,Nc1ccc(C(=O)NC2CCSc3ccccc32)cc1[N+](=O)[O-] (centres unmarked),-27.5
20,CCNC(=O)C12CCC(C)(c3nc4cc(C)c(C)cc4nc31)C2(C)C (centres unmarked),33.5
